# Assay results from PubChem BioAssay AID624296 (National Center for Advancing Translational Sciences (NCATS), 2012).
# “And” between values parts separate entries of the source, which are not always exact repeats. Equal values may be shown once. The campaign covered roughly 350,000 compounds. About 9,900 (2.8%) were called active. Inconclusive results, whose numbers are uncertain, are shown with a selection of clear calls. Calls follow the shape of the dose curve; as a rule, active = well fitted activation curve with a large enough effect; inconclusive = small, poorly fitted or top-dose-only effect; inactive = no such curve, though single readings can be large or run the other way. Potencies beside an inconclusive call are fits to weak or partial responses and may not hold up.
# Assay: A quantitative high throughput screen for small molecules that induce DNA re-replication in MCF 10a normal breast cells. Also: nearly all actives have a fitted effect of over 50% in size.
# Details: MCF 10A DNA re-replication, Hoechst nuclear intensity, 48 h; series mostly up to 46.1 µM
# Potency is read from the fitted curve at half-maximal effect; tags tell the direction and shape of the fitted curve.
row,SMILES,Potency
1,Cc1cc(=O)[nH]c(SCc2ccc(Cl)cc2Cl)n1,inactive
2,O=c1[nH]c(=O)c2[nH]c(=S)[nH]c2[nH]1,inactive
3,Cc1csc(NC(=O)c2cn3ccccc3n2)n1,inactive
4,Cc1ccc(Nc2nc(C)c(CCC(C)C)c(=O)[nH]2)cc1,"inconclusive: 6.51 µM [activator, partial curve, poor fit]"
5,CC(=O)C1=C(O)CCC1=NCCc1ccccc1,active: 20.6 µM
6,O=C1/C(=C\c2cccnc2)CCc2ccccc21,"inconclusive: 29.1 µM [activator, single point]"
7,CSc1nc(-c2ccccc2)cn1-c1ccc(NC(C)=O)cc1,"inconclusive: 6.51 µM [activator, single point]"
8,CC(=O)c1cnc2nc(SCc3ccc(Cl)cc3)nn2c1C,"inconclusive: 29.1 µM [activator, single point]"
9,COc1ccccc1N1CCN(C(=O)CCCN2C(=O)c3cccc4cccc(c34)C2=O)CC1,"inconclusive: 20.6 µM [activator, single point]"
10,CCOc1cccc2sc(NN)nc12,"inconclusive: 32.6 µM [activator, partial curve, poor fit]"
11,O=C(/C=C/c1ccco1)Nc1ccc2c(c1)OCO2,"inconclusive: 32.6 µM [activator, partial curve, poor fit]"
12,COc1cc(C(=O)Nc2nc(-c3ccc(Cl)cc3)c(C)s2)ccc1OCC(=O)Nc1ccc(F)cc1,"inconclusive: 5.8 µM [activator, full curve, poor fit]"
13,CC(C)COc1nc2ccccc2nc1C(C#N)C(=O)NC1CCCCC1 (centres undefined),active: 5.8 µM
14,COCC(C)NC(=O)CCS(=O)(=O)c1nc(-c2ccc(OC)cc2)cc(C(F)(F)F)n1 (centres undefined),active: 3.66 µM
15,Cc1ccc2cc(/C=N/NC(=O)c3ccccc3O)c(Cl)nc2c1,"inconclusive: 29.1 µM [activator, single point]"
16,CCCCOC(=O)c1ccc(N)cc1,"inconclusive: 29.9 µM [activator, partial curve, poor fit] and inconclusive: 18.4 µM [activator, single point]"
17,O=C(NCc1c(Cl)cccc1Oc1ccccc1)c1ccccc1,"inconclusive: 2.59 µM [activator, single point]"
18,S=c1nc[nH]c2c1ncn2C1CCCO1 (centres undefined),"inconclusive: 6.51 µM [activator, single point]"
19,N#C/C(=C\c1ccc(OCc2ccc(Cl)cc2)cc1)C(=O)Nc1cccc(C(=O)O)c1,inactive
20,COc1ccc2sc(-c3ccc(SC)cc3)c(-c3ccc(O)cc3)c2c1,"inconclusive: 29.1 µM [activator, single point]"
21,CC1CCCC(NC(=O)Cn2c(Cl)nc3c2c(=O)n(C)c(=O)n3C)C1C (centres undefined),inactive
22,CCOC(=O)/C(C#N)=C/c1cc(C)n(-c2ccc(C)cc2)c1C,"inconclusive: 12.6 µM [activator, partial curve, poor fit]"
23,COc1ccc(C(=O)CSc2nnc(CCc3ccccc3)n2-c2ccccc2)cc1,active: 7.31 µM

row,SMILES,Potency
1,CCOC(=O)c1ccc2c(c1)nc(C)n2CC,"inconclusive: 6.51 µM [activator, single point]"
2,COc1ccc(-c2cc(C)no2)cc1S(=O)(=O)N(C)c1ccc(C)cc1,active: 7.31 µM
3,Cc1ccc(CN2C(=O)S/C(=C\c3ccccc3OCC(=O)O)C2=O)cc1,inactive
4,CC(C)C[C@@H](NC(=O)C1CCC(CNC(=O)[C@H](Cc2ccccc2)NC(=O)OC(C)(C)C)CC1)C(=O)O (some centres undefined),inactive
5,COc1ccccc1[C@@H]1C(c2cccc(Cl)c2)=NN(c2ccc(Br)cc2)[C@H]1C(=O)N1CCOC1=O,"inconclusive: 0.411 µM [activator, full curve, poor fit]"
6,CN(C)CCCN1C(=O)c2oc3ccc(Cl)cc3c(=O)c2C1c1cccnc1 (centres undefined),inactive
7,COc1ccc(/C=N/N(c2ccccc2)c2ccccc2)cc1O,"inconclusive: 29.1 µM [activator, single point]"
8,COc1ccc(-c2oc3cccnc3c2-c2ccc(OC)nc2)cc1,"inconclusive: 29.1 µM [activator, single point]"
9,O=C(N=Nc1c(O)[nH]c2ccc(Br)cc12)c1ccccc1-n1cccc1,"inconclusive: 0.731 µM [activator, full curve]"
10,CC1CCc2sc3nc(NCc4ccco4)n4ncnc4c3c2C1 (centres undefined),"inconclusive: 16.4 µM [activator, single point]"
11,CCOc1ccccc1-n1c(SCC(=O)Nc2ccccc2C(=O)O)nc2ccccc2c1=O,"inconclusive: 23.1 µM [activator, single point]"
12,COc1ccc(Cl)cc1C=CC=Nc1ccc(S(N)(=O)=O)cc1,"inconclusive: 20.6 µM [activator, single point]"
13,CCCNC(=O)c1ccc(COc2ccc(CCC)cc2OC)o1,inactive
14,COc1ccc(-c2cc(C(=O)NC3=NCCS3)c3ccccc3n2)cc1OC,"inconclusive: 15.8 µM [activator, single point]"
15,CCc1cc2ccc(C)cc2nc1SCC(=O)NNC(=O)c1ccco1,"inconclusive: 3.66 µM [activator, full curve, poor fit]"
16,COC(=O)c1cccc(S(=O)(=O)N(Cc2ccco2)Cc2cc3cc(OC)ccc3[nH]c2=O)c1,"inconclusive: 29.1 µM [activator, single point]"
17,CCOc1ccc(N(CC(=O)NC2CCCCCC2)S(=O)(=O)c2ccccc2)cc1,inactive
18,COc1cc2oc3cc(C#Cc4ccc(N)cc4)ccc3c(=O)c2cc1OC,active: 9.2 µM
19,O=C(c1cccs1)N1CCN(c2cc(Cl)ccc2Cl)CC1,"inconclusive: 18.4 µM [activator, partial curve]"
20,COc1cc(/C=C2/SC(=Nc3ccc(O)cc3)NC2=O)cc(OC)c1O,"inconclusive: 5.8 µM [activator, full curve]"
21,CCN1C(C)=C(C)S/C1=C1\SC(=S)N(C2CCCCC2)C1=O,"inconclusive: 23.1 µM [activator, partial curve, poor fit]"
22,CCC1CCCCN1S(=O)(=O)c1ccc(S(=O)(=O)N(Cc2ccccn2)CC2CCCO2)cc1 (centres undefined),inactive
23,COc1cc(CN2CCNC(=O)C2CC(=O)NC2CCCC2)cc(OC)c1 (centres undefined),inactive

row,SMILES,Potency
1,Cc1ccc(-c2nnc(NC3CCCC3)s2)cc1,"inconclusive: 0.651 µM [activator, full curve, poor fit]"
2,CCCCC[C@@H](/C=C/C1C(=O)C=C[C@H]1C/C=C\CCCC(=O)O)OC(C)=O (some centres undefined),"inconclusive: 18.4 µM [activator, single point]"
3,CCOC(=O)c1ccc(N2C(=O)[C@@H](c3ccccc3)[C@H]2c2ccccc2)cc1,"inconclusive: 10.3 µM [activator, partial curve, poor fit]"
4,COCCn1c(SCC(=O)Nc2c(C)n(C)n(-c3ccccc3)c2=O)nnc1-c1ccncc1,inactive
5,CC(=O)Oc1cc(OC(C)=O)c2c(=O)c(-c3ccc4c(c3)OCCCO4)c(C)oc2c1,"inconclusive: 18.4 µM [activator, single point]"
6,O=C(Cc1ccc(NC(=O)C2CCCN(C(=O)C3CCCC3)C2)cc1)Nc1cccc(C(=O)N2CCCC2)c1 (centres undefined),"inconclusive: 32.6 µM [activator, single point]"
7,Cc1ccc2c(c1)cc1c(=O)n(CC(=O)NCCN3CCCC3)nc(C)n12,"inconclusive: 29.1 µM [activator, partial curve, poor fit]"
8,Cc1ccc(C)c(N2CCN(C(=S)Nc3ccc4nc(N5CCOCC5)cc(C)c4c3)CC2)c1,active: 16.4 µM
9,COc1ccc(C(=O)Nc2cccc(-c3nnc(-c4ccco4)o3)c2)cc1,"inconclusive: 20.6 µM [activator, single point]"
10,O=C(CNC(=O)c1ccccn1)N=Nc1c(O)[nH]c2ccccc12,"inconclusive: 29.1 µM [activator, single point]"
11,CN(C)/N=N/c1nc[nH]c1C(N)=O,"inconclusive: 16.8 µM [activator, partial curve, poor fit]"
12,COc1ccc(-c2ccc3c(c2)C2CC3CCN2C(=O)C(C)(C)C)cc1 (centres undefined),inactive
13,O=C(CSC1CN(C(c2ccccc2)c2ccccc2)C1)N/N=C/c1ccccc1,"inconclusive: 29.1 µM [activator, single point]"
14,O=C(CCCSc1nnc(Nc2ccccc2F)s1)N1CCOCC1,"inconclusive: 29.1 µM [activator, single point]"
15,CCOC(=O)C1CCN(Cc2c(O)c3ccccc3oc2=O)CC1,"inconclusive: 29.1 µM [activator, single point]"
16,COc1ccc(NC(=O)CN(C)C(=O)c2cc(-c3ccc(OC)cc3)nc3ccccc23)cc1,"inconclusive: 32.6 µM [activator, single point]"
17,Cc1ccc(NC(=O)Nc2ccc3c(c2)nc(C)n3C)cc1,inactive
18,COc1ccccc1C(=O)N/C(N)=N/c1nc2ccccc2o1,"inconclusive: 16.4 µM [activator, single point]"
19,O=C(C1CCCCC1)N1CCCn2c1nc1ccccc12,inactive
20,Cc1ccc(C2Nc3ccc4ccccc4c3C3=C2C(=O)CC(C)(C)C3)o1 (centres undefined),"inconclusive: 18.4 µM [activator, partial curve, poor fit]"
21,Cc1c(C(=O)N(CCO)Cc2ccccc2)oc2c(F)cccc12,active: 0.731 µM
22,COC(=O)c1sc2nc(CN3CCN(c4cccc(C(F)(F)F)c4)CC3)[nH]c(=O)c2c1C,inactive
23,CCN(CC)C(=O)c1ccccc1NC(=O)CN1C(=O)c2ccccc2S1(=O)=O,inactive
